Assay results from paper PMC4336329 (PLoS ONE, 2015).
In all, about 310,000 compounds went through this assay and about 2,200 (0.71%) showed an effect of 50% or more. The effect is printed as a negative number. Some of the results follow.

target: human ether-à-go-go-related gene (hERG) potassium channel (human, UniProt Q12809); assay: primary screen, population patch clamp on CHO cells stably expressing hERG
Sequence (Q12809 whole entry, looked up): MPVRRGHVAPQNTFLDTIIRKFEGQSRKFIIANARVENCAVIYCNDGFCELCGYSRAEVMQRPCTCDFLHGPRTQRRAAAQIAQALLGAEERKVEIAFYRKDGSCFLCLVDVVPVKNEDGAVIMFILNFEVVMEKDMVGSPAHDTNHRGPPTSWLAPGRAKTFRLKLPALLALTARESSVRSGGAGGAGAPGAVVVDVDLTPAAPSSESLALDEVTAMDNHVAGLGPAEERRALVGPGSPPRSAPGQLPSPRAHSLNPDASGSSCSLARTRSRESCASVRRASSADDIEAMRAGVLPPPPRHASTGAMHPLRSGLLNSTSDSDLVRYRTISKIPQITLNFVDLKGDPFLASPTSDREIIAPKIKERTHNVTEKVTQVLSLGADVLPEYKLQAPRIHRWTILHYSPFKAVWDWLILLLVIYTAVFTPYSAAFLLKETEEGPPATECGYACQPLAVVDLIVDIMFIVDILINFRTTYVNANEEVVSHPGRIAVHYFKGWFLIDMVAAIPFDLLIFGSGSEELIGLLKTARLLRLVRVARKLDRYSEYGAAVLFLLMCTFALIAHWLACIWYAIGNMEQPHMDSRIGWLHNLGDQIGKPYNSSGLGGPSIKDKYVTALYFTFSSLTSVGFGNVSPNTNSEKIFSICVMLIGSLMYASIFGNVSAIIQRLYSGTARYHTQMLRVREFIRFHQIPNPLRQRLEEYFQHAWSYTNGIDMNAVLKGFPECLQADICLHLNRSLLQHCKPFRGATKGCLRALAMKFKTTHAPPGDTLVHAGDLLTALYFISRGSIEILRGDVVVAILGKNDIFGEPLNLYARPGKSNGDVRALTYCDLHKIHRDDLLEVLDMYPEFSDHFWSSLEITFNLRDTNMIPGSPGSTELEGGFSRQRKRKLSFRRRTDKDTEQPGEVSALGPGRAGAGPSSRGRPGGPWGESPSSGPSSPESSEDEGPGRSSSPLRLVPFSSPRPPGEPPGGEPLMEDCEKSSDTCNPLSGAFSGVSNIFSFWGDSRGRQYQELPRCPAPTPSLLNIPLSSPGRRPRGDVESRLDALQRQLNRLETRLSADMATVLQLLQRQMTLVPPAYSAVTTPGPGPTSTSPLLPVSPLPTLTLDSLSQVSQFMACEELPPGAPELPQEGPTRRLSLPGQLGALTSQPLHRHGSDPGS

Row | Structure (SMILES) | hERG current change (%, negative = inhibition) at 1uM
1 | O=C(CN1C(=O)NC2(CCCC2)C1=O)NCCc1ccc(Cl)cc1Cl | 13.9%
2 | COc1cc(C2N(C)CCC3(OCCO3)C2(C)C)cc(OC)c1OC (centres unmarked) | 3.22%
3 | COc1cc(OC)cc(C(=O)Nc2cccc(C(C)=O)c2)c1 | 3.63%
4 | CN(C)c1cccc(C(=O)N2CCCC(CCC(=O)N3CCN(c4ccccn4)CC3)C2)c1 (centres unmarked) | -2.48%
5 | COc1ccc(-c2cc(C(=O)OCC(=O)N(C)C3CCS(=O)(=O)C3)c3ccccc3n2)cc1OC (centres unmarked) | 8.43%
6 | O=C(COc1ccccc1)NCCn1ccc2ccccc21 | 6.94%
7 | CCCCc1ccc(NC(=O)CC(C)(C)C)cc1 | 4.54%
8 | Cc1cc(C(=O)N2CCCC(N3CCN(c4ccc(F)cc4)CC3)C2)no1 (centres unmarked) | -19.1%
9 | Cc1cc2cc3c(cc2nc1SCc1ccc(C(=O)O)cc1)OCCO3 | 4.07%
10 | C/[N+]([O-])=C\C1C(=O)CCCC1=O | 8.32%
11 | O=[N+]([O-])c1cccn2cc(-c3ccc(Br)cc3)nc12 | -8.95%
12 | CCn1c(O)c(C=Nc2ccccc2)oc1=S | 7.04%
13 | Cc1cc(OC(C)C)nc(NCc2ccccc2)n1 | 2.79%
14 | O=C(CCl)N1c2ccccc2SCC1c1ccccc1 (centres unmarked) | 23.2%
15 | COc1ccc(-c2nn(-c3ccccc3)cc2/C=N/N2C(=O)CSC2=S)cc1 | 3.55%
16 | Cc1cccc(-c2nc3c(c(SCC(=O)N4CCOCC4)n2)CCCC3)c1 | 11.2%
17 | COc1cccc(CNC(=O)c2ccc(COc3ccccc3)cc2)c1 | 26.2%
18 | O=C(O)C(=O)O.OC(COCc1ccco1)CN1CCN(c2ccccc2)CC1 (centres unmarked) | 3.71%
19 | CC(=O)NC1=NN(C(C)=O)C(C)(c2ccc(Br)cc2)S1 (centres unmarked) | 2.91%
20 | CC1(C)CC(=O)c2cc(O)ccc2O1 | -0.296%
21 | COC(=O)C1=C(c2cccc(C#N)c2)C[C@@H]2CC[C@H]1N2C(=O)N1CCCCC1 | 1.15%
22 | O=C(CCc1nc2ccccc2[nH]1)Nc1ccc2c(c1)OCCO2 | 11.6%

Row | Structure (SMILES) | hERG current change (%, negative = inhibition) at 1uM
23 | CCN(CC(=O)Nc1ccc(NC(C)=O)cc1)C(=O)c1cccc(Oc2ccccc2)c1 | 15.9%
24 | O=C(CCC(=O)N(CC(=O)NC1CCCC1)Cc1cccs1)Nc1nccs1 | 4.31%
25 | Cc1ccc(NC(=S)N2CCCC2)cc1 | 5.92%
26 | Cc1onc(-c2ccccc2)c1-c1ccnn1C(=O)NC(C)C | 6.54%
27 | O=S(=O)(c1ccccc1)N(CC(O)COc1ccccc1)c1ccccc1 (centres unmarked) | 7.47%
28 | N#Cc1c(NC(=O)CN2C(=O)c3ccccc3C2=O)oc(-c2ccccc2)c1-c1ccccc1 | -9.29%
29 | COc1ccc(-c2c(NC(=O)CC(C)C)n(C)c3ccccc3c2=O)cc1OC | 22.8%
30 | O=C(CSc1nnc(CNc2ccc(F)cc2)o1)c1ccccc1 | 3.89%
31 | COc1ccc(C2c3ccc4ccccc4c3Oc3ncn(CCN(C)C)c(=N)c32)cc1 (centres unmarked) | -40.1%
32 | CCN(CC)CCSc1nnc2c3ccccc3n(Cc3ccccc3)c2n1 | -73.4%
33 | Cc1onc(-c2c(Cl)cccc2Cl)c1C(=O)N=C(N)N1CCOCC1 | 14.1%
34 | O=C(c1cccc([N+](=O)[O-])c1)N1CCN(C/C=C/c2ccccc2)CC1 | -21%
35 | N#CCC(=O)N/N=C\c1ccc(OC/C=C/c2ccccc2)cc1 | 12.3%
36 | CCCc1ccc(OCc2ccc(C(=O)N/N=C/c3cccc([N+](=O)[O-])c3)o2)c(OC)c1 | 10.1%
37 | COc1ccc(N(C(C)=O)S(=O)(=O)c2cc(OC)ccc2OC)cc1 | 1.18%
38 | Cc1cccc(NC(=O)c2cccs2)n1 | 12.1%
39 | CC(=O)C1=C(C)Nc2ncnn2C1c1ccccc1Cl (centres unmarked) | 6.69%
40 | COc1ccc(/C=N/Nc2cc(C)nc(N)n2)cc1 | -7.98%
41 | COc1ccc(OC)c(/C=C(\C)C(=O)c2c(C)cc(C)[nH]c2=O)c1 | 10.8%
42 | C/C=C/C=C/C(=O)N1CC2(CC(c3cccc(NC(=O)/C=C/C)c3)=NO2)C[C@@H]1C(N)=O (some centres unmarked) | 10.7%
43 | CS(=O)(=O)Nc1ccc(C(=O)Nc2ccc3c(c2)OCCO3)cc1 | 6.07%
44 | COc1cccc(NC(=S)NC(C)c2ccc(OC)c(OC)c2)c1 (centres unmarked) | 8.49%

Row | Structure (SMILES) | hERG current change (%, negative = inhibition) at 1uM
45 | COc1ccc([N+](=O)[O-])cc1NC(=O)CSc1ccccc1 | 0.785%
46 | NC(=O)c1c(NC(=O)c2ccc(S(=O)(=O)N3CCOCC3)cc2)sc2c1CCCCC2 | -0.279%
47 | CCOC(=O)c1ccc(S(=O)(=O)N2CCN(CC3CC=CCC3)CC2)cc1.O=C(O)C(=O)O (centres unmarked) | 8.07%
48 | CCOc1ccc2c(c1)[N+](C)(C)C(C)(C)C=C2C.[I-] | 13.9%
49 | CCOc1ccc(Br)cc1S(=O)(=O)N1CC(C)OC(C)C1 (centres unmarked) | -3.3%
50 | COc1ccc(C(=O)NCC(=O)N/N=C/c2cccnc2)cc1 | 12.8%
51 | Cc1cccc(C(=O)n2c(=S)nc3cc(C)ccn32)c1 | 17.2%
52 | Oc1ccccc1/C=N/NC(=S)NC1CC2C=CC1C2 (centres unmarked) | 8.03%
53 | O=C(Cn1nnc(-c2ccccc2)n1)NCc1ccccc1 | -3.18%
54 | O=C1CC(NCCC2=CCCCC2)C(=O)N1c1cccc(Cl)c1Cl (centres unmarked) | 9.34%
55 | COC(=O)CSc1ccccc1C(=O)OC | 7.13%
56 | CC1(C)C2CC[C@]3(C)C(CC=C4[C@@H]5C[C@@](C)(CO)[C@@H](O)C[C@]56C[C@@H](OC6=O)[C@]43C)[C@@]2(C)CC[C@@H]1O (some centres unmarked) | 14.1%
57 | CCN(CC)S(=O)(=O)c1ccc(NC(=O)[C@@H](NC(=O)c2cc(OC)cc(OC)c2)C(C)C)cc1 | 11.2%
58 | Cc1ccc(OCC(=O)Nc2ccccc2-c2ccccc2NC(=O)COc2ccc(C)cc2)cc1 | 4.56%
59 | Cc1ccc(/C(N)=N/OC(=O)CSc2ccccc2)cc1 | 7.03%
60 | CN(C(=O)CCc1nc2ccccc2c(=O)[nH]1)C1CCS(=O)(=O)C1 (centres unmarked) | 9.63%
61 | CCCOc1cccc(C(=O)Nc2ccc(CN3CCOCC3)cc2)c1 | 7.88%
62 | CCOc1ccc(NC(=O)CN2CCN(CC(=O)Nc3ccccc3OC)CC2)cc1 | -30.9%
63 | O=C(Cn1c(/C=C/c2ccccc2)nc2ccccc21)Nc1ccc(F)cc1 | 6.84%
64 | CC(=O)Nc1ccc(NC(=O)CSc2nnc3c4ccccc4n(C)c3n2)cc1 | 5.74%
65 | CCN(CC)S(=O)(=O)c1ccc(C(=O)NCCOC(=O)c2ccc(F)cc2F)cc1 | 16.2%
66 | CCCn1c(N)c(N(CCOC)C(=O)CSCC(=O)Nc2cccc(C)c2)c(=O)[nH]c1=O | 10.2%

Row | Structure (SMILES) | hERG current change (%, negative = inhibition) at 1uM
67 | Cc1ccc2c(c1)N(S(=O)(=O)c1ccc(CN3C(=O)c4cccnc4C3=O)s1)CCO2 | 5.88%
68 | O=C(c1ccco1)N1CCN(c2cccc(Cl)c2)CC1 | 9.98%
69 | CCCOC(=O)C(C)Sc1n[nH]c(=O)[nH]c1=O (centres unmarked) | 0.807%
70 | O=C(CSc1n[nH]c(-c2ccccc2)n1)Nc1ccc(F)cc1F | 8.89%
71 | Cc1sc2nc(CSC(C)C(=O)N3CCOCC3)[nH]c(=O)c2c1C (centres unmarked) | 21.4%
72 | C[C@@]12CC[C@H]3OC(=O)C=C3C1CC[C@@]13CC(CCC12)[C@](CO)(O[C@H]1O[C@H](CO)[C@@H](O)[C@H](O)[C@H]1O)C3 (some centres unmarked) | 16.5%
73 | S=c1[nH]nc(-c2ccco2)n1/N=C/C=C/c1ccccc1 | 3.22%
74 | CCCS(=O)(=O)C/C(N)=N/OC(=O)c1ccc(Cl)cc1 | 4.94%
75 | COc1ccc(/C=C2/C(=O)NC(=S)N(C3CC3)C2=O)cc1CN1C(=O)c2ccccc2C1=O | 7.52%
76 | COc1ccc(OC)c(S(=O)(=O)NC(C)c2cnn(-c3ccccn3)c2C)c1 (centres unmarked) | 3.76%
77 | CC(C)(C)c1ccc(OCC(=O)Nc2cccc(S(=O)(=O)NC3=NCCCCC3)c2)cc1 | 3.94%
78 | CN(C)c1ccc(NC(=O)CN2C(=O)CN=C(c3ccccc3)c3ccccc32)cc1 | 10%
79 | CC(=O)Nc1ccc(Nc2nc(C)nc3c2oc2ccccc23)cc1 | 12.8%
80 | C=CCn1c(=S)[nH]c2cc(-c3ccccc3)sc2c1=O | 19.1%
81 | CNC(=O)Oc1ccc2c(c1)[C@]1(C)CCN(C)[C@@H]1N2C | 6.99%
82 | CCN(CC)C(=O)CSc1nc2c(sc(=S)n2-c2ccccc2)c(=O)[nH]1 | 0.377%
83 | COc1ccccc1-c1c(C)nn2c(N3CCN(c4ccccc4OC)CC3)cc(C)nc12 | 7.23%
84 | COc1ccc(-c2onc3ccc(Cl)cc23)cc1 | 16.6%
85 | NS(=O)(=O)c1ccc(CCNC(=O)c2ccc(Cn3c(=O)[nH]c4ccccc4c3=O)cc2)cc1 | -0.42%
86 | O=C(NC(Cc1ccccc1)C(=O)NCc1ccccn1)c1ccco1 (centres unmarked) | 5.81%
